Drawing on the RNAGym collection of RNA variant scans (doi:10.7554/elife.90254), this text covers self-cleavage for 56 variants.

B1: LINE1-mini (parent)
chain: GGCAGAGCUCAACACAGCGUGGCAAAGUGGCUGUGGCUAGACUGCC

Read counts are not given, so values of variants with three or more changes are uncertain.

The variants in the data set derive from B1. Put plainly: self-cleavage, relative activity (ratio to wild type); higher = more cleavage; in vitro, sequencing; the parent is a self-cleaving ribozyme.
Regarding GGCAGAGCUCUACACAGCGUGGCAAAGUGACUGUGGAGAGACUGCA [A11U G30A C37A U38G C46A], the self-cleavage stood at 0.01.

Consider GCCAGAGCUAAACACAGCGUGGAAAAGUGCCUGUGGCUAGACUGCC [G2C C10A C23A G30C], for which the self-cleavage was determined as 0.02. Consider GGCAGAGCUCAACACAGCGCGGGGAAGUGGGUGUGGCUAGACUGCC [U20C C23G A24G C31G], for which the self-cleavage stood at 0.11. Turning to GGCAGAGCUCAACACAGCGUGGCAAAGUGGCUGUGGCCAGACUAUC [U38C G44A C45U], the self-cleavage was 0.06. Take GGCAGAGCUCAACACAGCUUGGCAAAGCGGCUGUGGCUAGAAUGUU [G19U U28C C42A C45U C46U]: the self-cleavage was found to be 0.01. As for GGCAGAACUCAACACAUCGUGGCAAAGUGGCUGUGGCUAGACAGCU [G7A G17U U43A C46U], the self-cleavage amounted to 0.11. Turning to GGCAGAGCUCAACACCGCGUGGCAAAGUGGCUGUGGCUGCACAGCC [A16C A39G G40C U43A], the self-cleavage was 0.04.

Turning to GGCAUAGCUCAACACAGCGUGGCAAAGUGGCUGUUGCUAGACUGGC [G5U G35U C45G], the self-cleavage was 0.07. With GUCAGAGCUCCACACAGCGAGGCAAAGUGGCUGUUGCUAGACUGCC [G2U A11C U20A G35U], the self-cleavage came to 0.01. As for GGCAGAGCUCAACACAGAGUGGCAAAGGGGCUGUUGCUAGACUGCC [C18A U28G G35U], the self-cleavage came to 0.09. To GGCAGGGCUCAACACAUCGUGGCAGAGUGGCUUUGGCUAGACAGCC [A6G G17U A25G G33U U43A] belongs 0.05. GGCAGUGUUCAACACAGCGUAGCAAAGUGGCUGUGUCUAGACUGCC [A6U C8U G21A G36U]: the self-cleavage was 0.28. Take GGCAGAGCUCUGCACAGCGUGGCAAAGUGGCUGUGGCUAAACAGCC [A11U A12G G40A U43A]: the self-cleavage stood at 0.01. In the case of GGCAAAGCUCAACGCAGCGUGGCCAAGAGGCUGUGGCUACAUUGCC [G5A A14G A24C U28A G40C C42U], the self-cleavage is 0.05. Next, GGCCGAGCUCAACACAGCGUGGCAAAUUGGCUUUUGAUAGACUGCC [A4C G27U G33U G35U C37A]: 0.06; GGCAUAGCUCAACACAGCGUGGCGAAGCGGCUGUGGCUAGAGUGCC [G5U A24G U28C C42G]: 0.01; GGCUGAGCUCAACACAGCCUGGAAAAGUGGCCGUGGCUAGACUGCC [A4U G19C C23A U32C]: 0.02. Turning to GGCAAAGCUCAACACAGCGUGGCAAUGUGGCUGUGGCUGGACUGCC [G5A A26U A39G], the self-cleavage is 0.05. As for GGCGGAUCUCAACACAGCGUGGCAAAGUGGAUAUGGCUAGAUUGCC [A4G G7U C31A G33A C42U], the self-cleavage amounted to 0.08. Regarding GGCGGAGCUCAACACAGCGUGGCAAACUGUCUGUGGCUAGACUGAC [A4G G27C G30U C45A], the self-cleavage turned out to be 0.23. For the variant GGAAGAGCUCAACCCAGCGCGGCAAAGUGGCUGUAGCUAGACUGCC [C3A A14C U20C G35A], the self-cleavage was determined as 0.05. To GGCAGAGCUCAACAUAGCGUGGCAAAGAGGCUGUGGCUAGACCGCC [C15U U28A U43C] belongs 0.06; to GGCAGAGCUCAACACAGCGUGGCAAAGUGAAUCUGGCUUGACUGCC [G30A C31A G33C A39U], 0.07. Next, GGCAGAGCUCAACACAACGUGGCAGAGUGGCUUUGGCUAGACUGCC [G17A A25G G33U]: 0.02; GGCAGAGCUCAACACCGCGUGGCGAACUGGCUGUGGCUAGACUUCC [A16C A24G G27C G44U]: 0.02; AGCAGAGCUCAACACACCGUGGCAAAGUGGCUGUGGCGAGACUGCC [G1A G17C U38G]: 0.04. Regarding GUCAGGGCUCAACACAGUGUGGCAAAGUGGCUGUGGCUAGACUGUC [G2U A6G C18U C45U], the self-cleavage was 0.01. Next, GGCUUAGCUCAACACAGCGUGGCAAAGUGGCUGUGGCUAGACCGCC [A4U G5U U43C]: 0.04. Turning to GCCAGAGCUCAACACAGCGUGGCAAAGUGGAUGUGGAUAGACUGCC [G2C C31A C37A], the self-cleavage stood at 0.04.

Take GGCAGAGCUCAACAAAGCGUGGCAAAUUGGCUAUGGCUAGACUGCC [C15A G27U G33A]: the self-cleavage turned out to be 0.19. Take GGCAGAGCUCAACACGACGUGGCAAAGUGCCUGUGGGUAGACUGCC [A16G G17A G30C C37G]: the self-cleavage came out at 0.04. Next, GGCAGAGCUCAACACUGCGUUGCAAAGUGGCUGUGGCUCGCCUGCC [A16U G21U A39C A41C]: 0.01; GGCAUAGCUCAACACAGCGUGGCAUAGUGGCUGAGGCUAGACUGCC [G5U A25U U34A]: 0.07. As for GGCAGAGCUCGACACAGAGUGGCAAAGUGGCUGUGGCUAGGCUGCC [A11G C18A A41G], the self-cleavage worked out at 0.02. As to GGCAGUGCUCAACACAGCUUGGCAAAGUGGCUGUGGCUACACUGCC [A6U G19U G40C], the self-cleavage is 0.17.

As for GGCAGAGCUGAACCCCGCGUAGCAAAGUGGCUGUGGCUAGACGACC [C10G A14C A16C G21A U43G G44A], the self-cleavage is 0.02. Next, GGCAGAGCUCAACACACCGGGGCAAAGUUGCUGUGGCUAGACUGCC [G17C U20G G29U]: 0.04. Regarding GGGAGAGCUCAACACAGCGUAGCAACGUGGCUGUGGCUAGACUGCC [C3G G21A A26C], the self-cleavage stood at 0.28. To GGCAUAACUCAACAUAACAUGGCAAAGUGGCUGUGGCUAGACUGCC [G5U G7A C15U G17A G19A] belongs 0.03. Turning to GCCAGAGCGCAACACAGCGUGGCAAAGUGGAUGUGGCUAGACUGCC [G2C U9G C31A], the self-cleavage stood at 0.2. Regarding AGCAGAGCUCAACACGGCGUGGUAAAGUGGCUAUGGCUAGACUGCC [G1A A16G C23U G33A], the self-cleavage is 0.03.

On to GGCAGAGCUCAACUAAGCGUGGCAAAGUGGCUGUAGCUAGACUGCG [A14U C15A G35A C46G], for which the self-cleavage came out at 0.07. For GGCAGAGCUCAACACAGGGUGGCAAAGUAGCUGUGGCUAGUCUGUC [C18G G29A A41U C45U], the self-cleavage worked out at 0.12.

Take GGUAGAGCUCAACAGAGCGUGGCAAUGUGACUGUGGCUAGACUGCC [C3U C15G A26U G30A]: the self-cleavage came out at 0.02. On to GGUAGAGCUCAACACAGCGUGGCAAAGUCCCUGUGGCUAGACUGCC [C3U G29C G30C], for which the self-cleavage is 0.13. To GGUAGAGCUCAACACAUCGUGGCAAAGUGGCCGUGGCUAGACUACC [C3U G17U U32C G44A] belongs 0.54; to GGCAGAGCUCAACACAGCGUGGCAAAGUGGCUUUUGCUCGACUGCC [G33U G35U A39C], 0.06. Consider GGCAGAGCUCAACACAGCGUGGCAACGUGACUGUGGCUGGACUGCC [A26C G30A A39G], for which the self-cleavage was determined as 0.09. As to AGGAGAGCUCAACACAGCGUGGCAAAAUGGCUGUGGCUAGACUGCC [G1A C3G G27A], the self-cleavage was found to be 0.47. For GGCAAAGCUCAACGCAGCGUGGAAAAGUGACUGUGGCUAGCCUGCC [G5A A14G C23A G30A A41C], the self-cleavage came to 0.05.

In the case of GGCAGACCUCAAUAGAGCGUGUCAAAGUGGCUGUGGCUAGACUGCC [G7C C13U C15G G22U], the self-cleavage was determined as 0.07. In the case of GAUAGACCUCAACACAACGUGGCAAAGUGGAUAUAGCUAGACUGUC [G2A C3U G7C G17A C31A G33A G35A C45U], the self-cleavage was 0.13.

As for GGCAGAUCUCAACACAGCGUGUCAAAGUGGUUGUGGCUAGACUGCC [G7U G22U C31U], the self-cleavage was determined as 0.13. With GGCAGAGCUCAACACAGCGUGGGAAACUGGCUUUGGCUAGACUGCC [C23G G27C G33U], the self-cleavage was determined as 0.34. In the case of GGCAGAGCUCAACACAGCUUGGUAAAGUCGCUGUGGCUAGACUGCC [G19U C23U G29C], the self-cleavage came to 0.77. With GGCAGAGCUCAAAACAGCGUGGCAGAGUGGCUGUGGCUAGACUGAC [C13A A25G C45A], the self-cleavage amounted to 0.01.
